Results: ChEMBL document CHEMBL5308541, “MAIP: An Open-Source Tool to Enrich High-Throughput Screening Output and Identify Novel, Druglike Molecules with Antimalarial Activity” (ACS Med Chem Lett, 2023)
Out of some 150,000 compounds screened, about 540 (0.36%) showed an effect of 50% or more. This is one part of the list.

What follows are compounds tested on Plasmodium falciparum (assay: Primary screen in NF54 nanoGlo assay, in single point, at 2uM, 72h; a lower Z score goes with more inhibition). Settings: timepoint 72 hour.
Type: functional, Erythrocyte

SMILES | % Inhibition [%] | Z score
c1ccc(-c2cc(Cn3ccc(-c4cccc(-c5cncnc5)c4)n3)on2)nc1 | -19 | 3.33
Cc1cccc2c(-c3ncnc4[nH]ccc34)c[nH]c12 | 1 | -0.19
CN1CCC(N(Cc2ccccc2)C(=O)Cc2c[nH]c3ncccc23)CC1 | -1 | 0.19
CC[C@@H](CNc1nccc(C)n1)N1CCCCC1 | -6 | 1.01
CN(C(=O)N1CCS(=O)(=O)CC1)C1(C(N)=O)CCCC1 | 7 | -1.59
Cc1[nH]nc2ncc(CNC[C@H](O)c3ccc(F)cc3)cc12 | -4 | 0.67
Cc1[nH]c2ccccc2c1[C@@H](c1ccc(N(C)C)cc1)c1cc(C(C)(C)C)c(O)c(C(C)(C)C)c1 | -7 | 1.29
CC(CN1CCOCC1)Nc1cc(N2CCCC2CO)ncn1 (stereo unspecified) | -13 | 2.29
Cc1cc(NC[C@H](O)COc2ccc(F)cc2)nc2ccccc12 | 68 | -11.87
Cc1nc(N)sc1C(=O)N1CC[C@H](O)CC(C)(C)C1 | 3 | -0.66
O=C(c1ccnc(OC2CCCCC2)c1)N1CCC[C@H](CN2CCOCC2)C1 | -5 | 0.72
CN1CCC(N2CCC(NC(=O)c3ccccc3-c3nc(C(C)(C)C)no3)CC2)CC1 | -2 | 0.34
CCOC(=O)c1[nH]c(C)c(CCC(=O)N2CCC[C@H](C(=O)NCCN3CCN(C)CC3)C2)c1C | -4 | 0.75
Nc1ccc2c(NCCC3CCN(CC(F)(F)F)CC3)ncnc2n1 | -11 | 1.94
O=c1ccc(-c2cccnc2)nn1CC1CN(c2ncnc3[nH]ccc23)C1 | 5 | -1.07
Cc1nc(O)nc(C)c1CCC(=O)NC1(c2cc(F)cc(F)c2)CC1 | -10 | 1.78
C[C@@H](CN1CCCCCC1)NCCN(C)CCO | -6 | 0.94
Cc1cc(NC2CCN(C)CC2)cc(N2CCN(C(C)C)CC2)c1 | 1 | -0.21
Cc1cc(NCCNC(=O)Cn2c(C)csc2=O)n(C)n1 | -2 | 0.5
CCOc1ccnc(N2CCCN(CCCc3nc4ccccc4o3)CC2)n1 | 1 | -0.22
Cc1ncnc(OCC2CCN(c3ncnc4[nH]ccc34)CC2)c1C | -1 | 0.19

SMILES | % Inhibition [%] | Z score
COc1ccc2occ(C(=O)N3CCC[C@H](c4ccnc(N)n4)C3)c2c1 | 3 | -0.68
CC[C@]1(O)CCCN(CCn2cnnc2C)C1 | -2 | 0.3
FC(F)(F)c1cccnc1OC[C@H]1CCCN(c2ncnc3cnccc23)C1 | -10 | 1.55
Cc1nc(Nc2ccc(NC(=O)c3c(-c4ccccc4Cl)noc3C)cc2)cc(-n2ccnc2)n1 | 4 | -0.56
O=C(CC1CCNCC1F)Nc1ccc(Oc2ccnc3ccccc23)cc1 (stereo unspecified) | 25 | -4.95
O=C(c1onc2c1CCCC2)N1CCN(CCO)C2CS(=O)(=O)CC21 (stereo unspecified) | -6 | 1.27
CC(C)(C)OC(=O)NCCN1CCC(Nc2cccc(CO)c2)CC1 | -11 | 2.16
Fc1ccc2c(c1)[C@@H](NC1CCC(Oc3cnccn3)CC1)CC2 (stereo partly specified) | -3 | 0.64
COc1nc(N2CCCN(c3ccnc(C)c3)CC2)ncc1F | 6 | -0.99
CCS(=O)(=O)C1CN(C2CCCC2)C1 | -5 | 1.01
CNc1nc(C)cc(-c2cccc(C(=O)N3CCC4(CCNCC4)C3)c2)n1 | 5 | -1.01
COc1ccc2[nH]c(CNC(=O)c3cccc(-c4cn[nH]c4)c3)cc2c1 | -7 | 1.53
Cc1cnccc1NCCNC(=O)CN(C)C1CCNCC1 | -6 | 1.03
O=C(c1ccc(-c2cnc3[nH]ccc3c2)cc1)N1CCC2CNCC21 (stereo unspecified) | 1 | -0.2
COc1ccccc1N1CCN(C(=O)[C@]2(C)CCCO2)CC1=O | -13 | 2.32
CN1CCN(CCOc2ccccc2NC2CCCC2)CC1 | -14 | 2.37
N#Cc1ccc(-c2cc(-c3ccc(Nc4ccnc5cc(C(F)(F)F)ccc45)cc3)[nH]c(=O)c2C#N)cc1 | 1 | -0.21
Cc1noc(-c2ccnc(N3CCO[C@H](c4ccccc4)C3)c2)n1 | 0 | 0.07
CCc1cc(NC2CCN(CC(F)F)CC2)nc(-c2ccncc2)n1 | 4 | -0.75
Cc1c(-c2nc3ccc(Cl)cc3[nH]2)c2ccccc2n1CC(N)=O | -1 | 0.26
Cc1cnc(N2CCCN(C)CC2)nc1N1CCCN(C)CC1 | 17 | -2.92

SMILES | % Inhibition [%] | Z score
CN1CC(=O)N2C[C@@H](Nc3ncc(F)c(N(C)C)n3)C[C@H]2C1=O | 9 | -1.66
COc1cccc(CNCCCNc2ccc(C)cn2)c1OCCCN(C)C | 5 | -0.86
NCCc1cccc(CN2CCC[C@H](CN3CCCCC3)C2)c1 | 3 | -0.52
CN1CCC(NC(=O)N2CCCC(Nc3ccc(N(C)C)nc3)CC2)C1=O (stereo unspecified) | -4 | 0.8
c1ccc(-c2ccnc(CCn3cnc(-c4ccccc4)c3-c3c[nH]cn3)n2)cc1 | 0 | 0
Cc1nc(Nc2nc3ccccc3o2)nc2c1C(=O)CC(C)(C)C2 | 0 | -0.03
CN1CCC(N2CCN(Cc3c(Cl)cncc3Cl)CC2)CC1 | 1 | -0.21
O=C(Nc1ccc(N2CCC(NC[C@@H](c3ccc(F)cc3)N3CCCC3)CC2)cc1)c1cnccn1 | -3 | 0.59
COc1ccc(-c2ccnc3c(-c4ccc(F)cc4)cnn23)c(O)c1 | 22 | -3.81
COc1ccccc1-c1noc(C2CCN(Cc3ccc4cn[nH]c4c3)CC2)n1 | -6 | 0.96
CN1CCN(CCNc2cncc(-n3cccn3)n2)[C@H](c2ccccc2)C1 | 17 | -2.57
COCCN1CCC(c2nccn2-c2cnc3ccccc3c2)CC1 | -14 | 2.4
FC(F)(F)c1ccc(-c2c(-c3ccccc3)ncn2Cc2ncn[nH]2)cc1 | 31 | -5.37
Cc1ccc2nc(OCc3ccccc3Cl)c(CN3CCC(N4CCC[C@H](CO)C4)CC3)cc2c1 | 3 | -0.47
Clc1cccc(COc2cccc(-c3nccc4c3[nH]c3ccccc34)c2)c1 | -8 | 1.34
O=C(CC1(C(=O)O)CCC1)N[C@@H]1CCOc2c(F)cccc21 | -6 | 0.97
Cc1[nH]c2c(F)cccc2c1CC(=O)N1CCc2[nH]c(-c3cn[nH]c3)nc2C1 | 1 | -0.18
CN1CCC(N2CCC(NC(=O)c3ccc(S(=O)(=O)N(C)C4CCCCC4)cc3)CC2)CC1 | 40 | -6.98
COc1ccc2nccc(O[C@H]3CCN(C)C3)c2c1 | 8 | -1.49
O=C([C@@H]1CCCN1c1ncnc2sccc12)N1CCCN(CC(F)F)CC1 | 1 | -0.2
Cc1cc(C(=O)Cn2nnc(C3CC3)n2)c(C)[nH]1 | -2 | 0.38

SMILES | % Inhibition [%] | Z score
c1cc(-c2ccn[nH]2)cc(-c2cnn3cccnc23)c1 | -7 | 1.18
Cn1cnnc1-c1cccc(NC2CCN(C3CCCCC3)CC2)c1 | -3 | 0.5
Cc1ccc([C@@H](C)CCN2CCC(N3CCC(C(=O)N4CCCC4)CC3)CC2)o1 | 3 | -0.52
c1cnc(N2CCCC2)c(Nc2nnc(-c3ccncc3)o2)c1 | -7 | 1.24
CCc1c(C(=O)N(C)CCCN2CCCCCC2)[nH]c2ccccc12 | -12 | 2.12
CC(C)Nc1cc(N2CCC(N3CCN(C)CC3)C(O)C2)ncn1 (stereo unspecified) | -5 | 1.17
OC1CN(C2CCOCC2)CC1N1CCN(c2ccncc2)CC1 (stereo unspecified) | -6 | 0.86
CCCCN(C)C[C@@H](C)NC(=O)CCCN1CCN(c2ccccc2)CC1 | -5 | 1.09
C[C@@H](CC#N)N(C)C(=O)Nc1ccc2nc(Cc3ccccc3)oc2c1 | -15 | 2.91
Cc1nc2ccc(C(=O)N(C)CCCc3c(C)n[nH]c3C)cc2s1 | -3 | 0.56
N#CCCCOc1cccc(CNCc2nc3ccccc3[nH]2)c1 | -9 | 1.29
CN1C[C@@H]2CN(c3cc4c(nn3)CCN(CC(O)CN(C)C3CC3)C4)C[C@@H]2C1 (stereo partly specified) | 0 | 0.04
Cc1nc2ccc(NC(=O)N[C@H]3CCN(CC4CCCC4)C3)cc2o1 | 7 | -1.05
Cc1cc(C)n([C@H]2CCN(C(=O)NC3(CN4CCOCC4)CCCC3)C2)n1 | -9 | 1.63
CC(C)CN1CCC(OC2C[C@H]3CC[C@@H](C2)N3C(=O)c2ccc(C(C)C)cc2)CC1 (stereo partly specified) | 1 | -0.21
CC(NC(=O)C1CCCN1C1CCN(CC(F)(F)F)CC1)c1ccc2c(c1)CCCC2 (stereo unspecified) | -5 | 1.06
CN1CCC(N2CCC[C@H](NC(=O)c3ccccc3N3CCCC3)C2)CC1 | -1 | 0.29
Cc1cccc(N2CCC(N3CCC(NC(=O)c4ccncc4)C(O)C3)CC2)c1 (stereo unspecified) | -16 | 2.86
CCOC(=O)NC1CCCN(C(CN2C(=O)c3ccccc3C2=O)C(=O)OC)C1 (stereo unspecified) | 6 | -1.33
Cc1cc(C[C@H](C)NS(=O)(=O)NCc2ccccc2)n[nH]1 | 1 | -0.1
